Measured values taken from the supplement of paper PMC8728848.
The list shows a part of the results.

What was measured:
Test in all cases: glycan array binding signal (z-score within array); higher = stronger binding
Conditions in all cases: glycan notation: IUPAC condensed, linker removed
[1] = target: Gal(b1-4)GlcNAc(b1-3)Gal(b1-4)GlcNAc(b1-2)[Gal(b1-4)GlcNAc(b1-3)Gal(b1-4)GlcNAc(b1-6)]Man(a1-6)[Gal(b1-4)GlcNAc(b1-3)Gal(b1-4)GlcNAc(b1-2)Man(a1-3)]Man(b1-4)GlcNAc(b1-4)[Fuc(a1-6)]GlcNAc
Procedure, shortened: (§1)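 Glycan array data were curated from 3228 arrays in the Consortium for Functional Glycomics database and kept only where the protein sequence was available. Glycan names were converted to IUPAC-condensed notation, and columns mapping to the same glycan were averaged. The binding signal is a within-array Z-score, averaged across arrays of the same protein sequence at different concentrations or buffers and across linkers. Negative Z-scores can be read as non-binding.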

[2] = target: Gal(b1-4)GlcNAc(b1-3)Gal(b1-4)GlcNAc(b1-3)Gal(b1-4)GlcNAc
Procedure, shortened: as §1

[3] = target: Gal(b1-4)GlcNAc(b1-3)Gal(b1-4)GlcNAc(b1-3)Gal(b1-4)GlcNAc(b1-2)Man(a1-3)[Gal(b1-4)GlcNAc(b1-3)Gal(b1-4)GlcNAc(b1-3)Gal(b1-4)GlcNAc(b1-2)Man(a1-6)]Man(b1-4)GlcNAc(b1-4)GlcNAc
Procedure, shortened: as §1

[4] = target: Gal(b1-4)GlcNAc(b1-3)Gal(b1-4)GlcNAc(b1-3)Gal(b1-4)GlcNAc(b1-2)Man(a1-3)[Gal(b1-4)GlcNAc(b1-3)Gal(b1-4)GlcNAc(b1-3)Gal(b1-4)GlcNAc(b1-2)Man(a1-6)]Man(b1-4)GlcNAc(b1-4)[Fuc(a1-6)]GlcNAc
Procedure, shortened: as §1

[5] = target: Gal(b1-4)GlcNAc(b1-3)Gal(b1-4)GlcNAc(b1-3)Gal(b1-4)GlcNAc(b1-2)[Gal(b1-4)GlcNAc(b1-3)Gal(b1-4)GlcNAc(b1-3)Gal(b1-4)GlcNAc(b1-6)]Man(a1-6)[Gal(b1-4)GlcNAc(b1-3)Gal(b1-4)GlcNAc(b1-3)Gal(b1-4)GlcNAc(b1-2)Man(a1-3)]Man(b1-4)GlcNAc(b1-4)[Fuc(a1-6)]GlcNAc
Procedure, shortened: as §1

[6] = target: Gal(b1-4)GlcNAc(b1-3)Gal(b1-4)GlcNAc(b1-3)Gal(b1-4)GlcNAc(b1-3)Gal(b1-4)GlcNAc(b1-2)Man(a1-3)[Gal(b1-4)GlcNAc(b1-3)Gal(b1-4)GlcNAc(b1-3)Gal(b1-4)GlcNAc(b1-3)Gal(b1-4)GlcNAc(b1-2)Man(a1-6)]Man(b1-4)GlcNAc(b1-4)GlcNAc
Procedure, shortened: as §1

[7] = target: Gal(b1-4)GlcNAc(b1-3)Gal(b1-4)GlcNAc(b1-3)Gal(b1-4)GlcNAc(b1-3)Gal(b1-4)GlcNAc(b1-2)Man(a1-3)[Gal(b1-4)GlcNAc(b1-3)Gal(b1-4)GlcNAc(b1-3)Gal(b1-4)GlcNAc(b1-3)Gal(b1-4)GlcNAc(b1-2)Man(a1-6)]Man(b1-4)GlcNAc(b1-4)[Fuc(a1-6)]GlcNAc
Procedure, shortened: as §1

[8] = target: Gal(b1-4)GlcNAc(b1-3)Gal(b1-4)GlcNAc(b1-3)Gal(b1-4)GlcNAc(b1-3)Gal(b1-4)GlcNAc(b1-2)[Gal(b1-4)GlcNAc(b1-3)Gal(b1-4)GlcNAc(b1-3)Gal(b1-4)GlcNAc(b1-3)Gal(b1-4)GlcNAc(b1-6)]Man(a1-6)[Gal(b1-4)GlcNAc(b1-3)Gal(b1-4)GlcNAc(b1-3)Gal(b1-4)GlcNAc(b1-3)Gal(b1-4)GlcNAc(b1-2)Man(a1-3)]Man(b1-4)GlcNAc(b1-4)[Fuc(a1-6)]GlcNAc
Procedure, shortened: as §1

[9] = target: Gal(b1-4)GlcNAc(b1-3)Gal(b1-4)GlcNAc(b1-3)Gal(b1-4)GlcNAc(b1-3)Gal(b1-4)GlcNAc(b1-3)Gal(b1-4)GlcNAc(b1-2)Man(a1-3)[Gal(b1-4)GlcNAc(b1-3)Gal(b1-4)GlcNAc(b1-3)Gal(b1-4)GlcNAc(b1-3)Gal(b1-4)GlcNAc(b1-3)Gal(b1-4)GlcNAc(b1-2)Man(a1-6)]Man(b1-4)GlcNAc(b1-4)GlcNAc
Procedure, shortened: as §1

[10] = target: Gal(b1-4)GlcNAc(b1-3)Gal(b1-4)GlcNAc(b1-3)Gal(b1-4)GlcNAc(b1-3)Gal(b1-4)GlcNAc(b1-3)Gal(b1-4)GlcNAc(b1-2)Man(a1-3)[Gal(b1-4)GlcNAc(b1-3)Gal(b1-4)GlcNAc(b1-3)Gal(b1-4)GlcNAc(b1-3)Gal(b1-4)GlcNAc(b1-3)Gal(b1-4)GlcNAc(b1-2)Man(a1-6)]Man(b1-4)GlcNAc(b1-4)[Fuc(a1-6)]GlcNAc
Procedure, shortened: as §1

[11] = target: Gal(b1-4)GlcNAc(b1-3)Gal(b1-4)GlcNAc(b1-3)Gal(b1-4)GlcNAc(b1-3)Gal(b1-4)GlcNAc(b1-3)Gal(b1-4)GlcNAc(b1-2)[Gal(b1-4)GlcNAc(b1-3)Gal(b1-4)GlcNAc(b1-3)Gal(b1-4)GlcNAc(b1-3)Gal(b1-4)GlcNAc(b1-3)Gal(b1-4)GlcNAc(b1-6)]Man(a1-6)[Gal(b1-4)GlcNAc(b1-3)Gal(b1-4)GlcNAc(b1-3)Gal(b1-4)GlcNAc(b1-3)Gal(b1-4)GlcNAc(b1-3)Gal(b1-4)GlcNAc(b1-2)Man(a1-3)]Man(b1-4)GlcNAc(b1-4)[Fuc(a1-6)]GlcNAc
Procedure, shortened: as §1

[12] = target: Gal(b1-4)GlcNAc(b1-3)Gal(b1-4)GlcNAc(b1-3)Gal(b1-4)GlcNAc(b1-3)Gal(b1-4)GlcNAc(b1-3)Gal(b1-4)GlcNAc(b1-3)Gal(b1-4)GlcNAc(b1-2)Man(a1-3)[Gal(b1-4)GlcNAc(b1-3)Gal(b1-4)GlcNAc(b1-3)Gal(b1-4)GlcNAc(b1-3)Gal(b1-4)GlcNAc(b1-3)Gal(b1-4)GlcNAc(b1-3)Gal(b1-4)GlcNAc(b1-2)Man(a1-6)]Man(b1-4)GlcNAc(b1-4)GlcNAc
Procedure, shortened: as §1

[13] = target: Gal(b1-4)GlcNAc(b1-3)Gal(b1-4)GlcNAc(b1-3)GalNAc
Procedure, shortened: as §1

[14] = target: Gal(b1-4)GlcNAc(b1-3)Gal(b1-4)GlcNAc(b1-3)[Gal(b1-4)GlcNAc(b1-3)Gal(b1-4)GlcNAc(b1-6)]GalNAc
Procedure, shortened: as §1

[15] = target: Gal(b1-4)GlcNAc(b1-3)Gal(b1-4)GlcNAc(b1-6)[Gal(b1-3)]GalNAc
Procedure, shortened: as §1

[16] = target: Gal(b1-4)GlcNAc(b1-3)Gal(b1-4)[Fuc(a1-3)]GlcNAc(b1-3)Gal(b1-4)[Fuc(a1-3)]GlcNAc
Procedure, shortened: as §1

[17] = target: Gal(b1-4)GlcNAc(b1-3)GalNAc
Procedure, shortened: as §1

[18] = target: Gal(b1-4)GlcNAc(b1-3)[Fuc(a1-3)GlcNAc(b1-6)]Gal(b1-4)Glc
Procedure, shortened: as §1

[19] = target: Gal(b1-4)GlcNAc(b1-3)[Gal(b1-4)GlcNAc(b1-6)]Gal(b1-4)GlcNAc
Procedure, shortened: as §1

[20] = target: Gal(b1-4)GlcNAc(b1-3)[Gal(b1-4)GlcNAc(b1-6)]GalNAc
Procedure, shortened: as §1

[21] = target: Gal(b1-4)GlcNAc(b1-3)[GlcNAc(b1-6)]Gal(b1-4)GlcNAc
Procedure, shortened: as §1

[22] = target: Gal(b1-4)GlcNAc(b1-6)Gal(b1-4)GlcNAc
Procedure, shortened: as §1

[23] = target: Gal(b1-4)GlcNAc(b1-6)Gal(b1-4)GlcNAc(b1-6)GalNAc
Procedure, shortened: as §1

B1: BDCA-2 (Homo sapiens), Q8WTT0 (protein)
chain: MVPEEEPQDREKGLWWFQLKVWSMAVVSILLLSVCFTVSSVVPHNFMYSKTVKRLSKLREYQQYHPSLTCVMEGKDIEDWSCCPTPWTSFQSSCYFISTGMQSWTKSQKNCSVMGADLVVINTREEQDFIIQNLKRNSSYFLGLSDPGGRRHWQWVDQTPYNENVTFWHSGEPNNLDERCAIINFRSSEEWGWNDIHCHVPQKSICKMKKIYI
- glycan array binding signal (z-score) [1]: -0.128
- glycan array binding signal (z-score) [2]: -0.237
- glycan array binding signal (z-score) [3]: -0.087
- glycan array binding signal (z-score) [4]: -0.148
- glycan array binding signal (z-score) [5]: -0.147
- glycan array binding signal (z-score) [6]: -0.159
- glycan array binding signal (z-score) [7]: -0.154
- glycan array binding signal (z-score) [8]: -0.14
- glycan array binding signal (z-score) [9]: -0.166
- glycan array binding signal (z-score) [10]: -0.156
- glycan array binding signal (z-score) [11]: -0.155
- glycan array binding signal (z-score) [12]: -0.146
- glycan array binding signal (z-score) [13]: -0.158
- glycan array binding signal (z-score) [14]: -0.139
- glycan array binding signal (z-score) [15]: -0.125
- glycan array binding signal (z-score) [16]: -0.113
- glycan array binding signal (z-score) [17]: -0.16
- glycan array binding signal (z-score) [18]: -0.132
- glycan array binding signal (z-score) [19]: -0.185
- glycan array binding signal (z-score) [20]: -0.249
- glycan array binding signal (z-score) [21]: -0.176
- glycan array binding signal (z-score) [22]: -0.149
- glycan array binding signal (z-score) [23]: -0.323
